The record followed here is PMC7819943, “Rice protein-binding microarrays: a tool to detect cis-acting elements near promoter regions in rice”.

The list shows a part of the results.

The target in the assay is T1, OsWOX13 (Oryza sativa, UniProt Q5QMM3 1-267).
T1 sequence: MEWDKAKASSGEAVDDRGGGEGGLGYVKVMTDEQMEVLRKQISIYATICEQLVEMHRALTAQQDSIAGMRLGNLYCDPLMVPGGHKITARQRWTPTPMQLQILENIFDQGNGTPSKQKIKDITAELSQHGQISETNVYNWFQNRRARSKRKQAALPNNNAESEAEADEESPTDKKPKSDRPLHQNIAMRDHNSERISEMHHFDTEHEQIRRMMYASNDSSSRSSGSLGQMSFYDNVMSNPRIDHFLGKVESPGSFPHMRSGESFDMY
Description: protein-binding microarray (RPBM); PBS, 2% BSA, 51.3 ng/ul salmon testes DNA, 50 uM zinc acetate, 200 nM TF, 25 C, 1 h; high values mean tight binding. The conditions noted are these: protein: recombinant; tags: N-terminal polyhistidine and DsRed monomer fusion (pET32a); label: CyDye5-dUTP incorporated in the synthesized complementary strand; 3' TTTTT single-stranded linker to array surface; dsDNA, one strand shown. A digest of the protocol: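 Ni–NTA purification followed expression in E. coli BL21-CodonPlus of transcription factors fused N-terminally to a polyhistidine tag and DsRed. At 200 nM in PBS with 2% BSA, salmon testes DNA and 50 µM zinc acetate, the protein was incubated for 1 h at 25 °C with a custom Agilent array that had been primer-extended with Cy5-dUTP and blocked with 2% BSA. After washing, the array was read on an Axon 4000B scanner. The binding signal is per-feature fluorescence intensity in arbitrary units.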
Consider “TCTAATCACTTCGAAACTGTGTTAATAACGAGCAAACACACGGAGTCACCTAGTGCAG”, for which the binding signal is 4470 fluorescence intensity (a.u.).

On to “TTACTTTAATAATATAATAGATTAGGCATATAATACATCCCGGAGTCACCTAGTGCAG”, for which the binding signal is 7140 fluorescence intensity (a.u.).

Take “GCCTAATTGACCCTTTCATAAACCTCAGCGCCATTTTAGCCGGAGTCACCTAGTGCAG”: the binding signal is 32700 fluorescence intensity (a.u.).

Take “ATTGATTATACAATTATTTTAATCTACTTGTTAAGTTCATCGGAGTCACCTAGTGCAG”: the binding signal is 39400 fluorescence intensity (a.u.).

Take “TGGAAATTAATAGACATTTGTGCTATGAACAACATCATTGCGGAGTCACCTAGTGCAG”: the binding signal is 22300 fluorescence intensity (a.u.).

On to “TATTTTCTTTAATTAGCATCCATGTGTCGTGCTCAATGAACGGAGTCACCTAGTGCAG”, for which the binding signal is 4170 fluorescence intensity (a.u.).

Turning to “TTTAATTAATCACGCGCTAATAGACTGCTCCGTTTTCCGTCGGAGTCACCTAGTGCAG”, the binding signal is 55800 fluorescence intensity (a.u.).

As to “AGTATGACAGACGTGTTGGGCTACGACTCTAAATGGGCCACGGAGTCACCTAGTGCAG”, the binding signal is 3630 fluorescence intensity (a.u.).

Turning to “TGGAAATTATAGCTTATAGACAAAACTGAGGGTGACAATACGGAGTCACCTAGTGCAG”, the binding signal is 4890 fluorescence intensity (a.u.).

For the sequence “ATTTCGTGATATGATGACTTAAATTTGTTGTTATGTGATACGGAGTCACCTAGTGCAG”, the binding signal was 7940 fluorescence intensity (a.u.).

Turning to “TGCCGTTTGATTTGTTTCTTTTCATACGAGGTGATCATATCGGAGTCACCTAGTGCAG”, the binding signal was 10500 fluorescence intensity (a.u.).

For “ACATCTAGTTGATTTATTGTTTATGAGACGGAAGGAAAACCGGAGTCACCTAGTGCAG”, the binding signal is 5100 fluorescence intensity (a.u.).

For the sequence “GTAATTGCTGTCAAGGCAGGGGAAGTCATTCCAATCGACGCGGAGTCACCTAGTGCAG”, the binding signal was 7780 fluorescence intensity (a.u.).

In the case of “ATCCATCCAAATTAATCATTAATCAACAAGAGATGAGGAACGGAGTCACCTAGTGCAG”, the binding signal was 11300 fluorescence intensity (a.u.).

As for “GTTCTAATTTCAACTAAACTTCTAATTTTAGCGTGAACTACGGAGTCACCTAGTGCAG”, the binding signal is 10300 fluorescence intensity (a.u.).

As to “TATCCCAATCAGCGGAGACAAACCACGGTGGAGTCGCCAGCGGAGTCACCTAGTGCAG”, the binding signal is 10500 fluorescence intensity (a.u.).

For “AATCTAATTGGTTGAAAATGAATGAGTTGTTTGCATTAGACGGAGTCACCTAGTGCAG”, the binding signal is 22000 fluorescence intensity (a.u.).

Take “GTCCTAATATTTGATAGTACTAATTTTCTCCTCAGTTCATCGGAGTCACCTAGTGCAG”: the binding signal was 3350 fluorescence intensity (a.u.).

Take “CGACATTATAATTTAGATTAGTATATTATGGTTTTGACTTCGGAGTCACCTAGTGCAG”: the binding signal is 28500 fluorescence intensity (a.u.).

Consider “TATATGATCATTTGGTGGTTTGATTTGTGGCATTATCATACGGAGTCACCTAGTGCAG”, for which the binding signal was 7620 fluorescence intensity (a.u.).

Consider “ACCAAACAAGCTGTTAATTAGTGACGCAAACCATCAACCACGGAGTCACCTAGTGCAG”, for which the binding signal was 21700 fluorescence intensity (a.u.).

As to “ACAAAATTGAAATTGGAATTCTGATCAGCCACCAAAACAGCGGAGTCACCTAGTGCAG”, the binding signal was 39300 fluorescence intensity (a.u.).

Regarding “TTAGTAATAACTGGTTCTCTGTCAGTCAAGGTATTGCAGACGGAGTCACCTAGTGCAG”, the binding signal is 3200 fluorescence intensity (a.u.).

As for “TTAATTCTATCTAGTAGTAGAGTTAGTTATTTATATATTACGGAGTCACCTAGTGCAG”, the binding signal was 5310 fluorescence intensity (a.u.).

Consider “ATAATAAGATTAAAATAACATTTACCCGTTGCAAAGCACGCGGAGTCACCTAGTGCAG”, for which the binding signal was 3610 fluorescence intensity (a.u.).

“CTAAGAGCTAATTGTACAACTAATAAAATCCAAGTGCGCTCGGAGTCACCTAGTGCAG”: the binding signal is 3420 fluorescence intensity (a.u.).

As to “ATGCTTAATAGAAAATCTTAAATAAATTTATCCTAAAATCCGGAGTCACCTAGTGCAG”, the binding signal was 7750 fluorescence intensity (a.u.).

Consider “TTTATCAAATTATCGTTTGTGTACTCTAGCTGGTCCTGGACGGAGTCACCTAGTGCAG”, for which the binding signal was 3870 fluorescence intensity (a.u.).

Consider “TTAAATTAATGTATTACTAAATGGTTTGTAATAGAATATTCGGAGTCACCTAGTGCAG”, for which the binding signal was 12700 fluorescence intensity (a.u.).

With “TGAACTTCTGATTGACAAACCAAAGGAAGAAGTTGCAAGTCGGAGTCACCTAGTGCAG”, the binding signal was 28900 fluorescence intensity (a.u.).

Regarding “AATAATTTTCTCATTTTCTTTAACAGAAGATGACAATGCACGGAGTCACCTAGTGCAG”, the binding signal was 19100 fluorescence intensity (a.u.).

With “GTACTCGGCACCAATCACGTTGGCACCGGCCTCCTTCGCACGGAGTCACCTAGTGCAG”, the binding signal was 3210 fluorescence intensity (a.u.).

With “ACTATGACATTATTTAAACAAGTTTTATACTGAGACACTTCGGAGTCACCTAGTGCAG”, the binding signal is 5830 fluorescence intensity (a.u.).

Take “TGCTAACTTGAGATGAATGTCGAACTCCTAATTGCAGCTCCGGAGTCACCTAGTGCAG”: the binding signal is 3470 fluorescence intensity (a.u.).

In the case of “TCCTATAGAAATTGATGAGGATCTAAGAATACCTTCACCTCGGAGTCACCTAGTGCAG”, the binding signal is 6770 fluorescence intensity (a.u.).

As to “CTTAAAATTTGCAACAATAAAATTAACTGTATCTGAACATCGGAGTCACCTAGTGCAG”, the binding signal is 3670 fluorescence intensity (a.u.).

With “GCCCACCGCCAATCACTCATCCAAGTATCCAACAAAGAACCGGAGTCACCTAGTGCAG”, the binding signal is 4480 fluorescence intensity (a.u.).

For “AGGTTAATTAATAATATAAGGCGTGTGTATATATTGGTGTCGGAGTCACCTAGTGCAG”, the binding signal is 42300 fluorescence intensity (a.u.).

For the sequence “TGCTTTAATTATGAGAAAGAAACCAATGGCTGAACCATAGCGGAGTCACCTAGTGCAG”, the binding signal is 11000 fluorescence intensity (a.u.).

For the sequence “GTAGTTGATCAGATTGAGATAGCAGATCGATAAAATACAGCGGAGTCACCTAGTGCAG”, the binding signal is 4020 fluorescence intensity (a.u.).

Consider “ATCGGAGACTGACTGAGTGAAGGTTGGTTGGTTCACACTTCGGAGTCACCTAGTGCAG”, for which the binding signal was 4540 fluorescence intensity (a.u.).

With “TATAATTGATTATTGTGACCTCATGATAGAGACAAGACCACGGAGTCACCTAGTGCAG”, the binding signal was 53500 fluorescence intensity (a.u.).

As to “AGCTTAATTACCATGAATACAATGATACAGCCGGCTTAATCGGAGTCACCTAGTGCAG”, the binding signal was 17600 fluorescence intensity (a.u.).

Turning to “GTGGAATAAATTAGCTGGATTTTGCAATGTGATCCCCATCCGGAGTCACCTAGTGCAG”, the binding signal was 10900 fluorescence intensity (a.u.).

Turning to “CGTAAACTGGTACATATCGCCTGATGTACTGTGCAAGTTGCGGAGTCACCTAGTGCAG”, the binding signal was 20900 fluorescence intensity (a.u.).

Turning to “TACAGATTGCAACAGTATTCATCTATAAATGTTCCATCACCGGAGTCACCTAGTGCAG”, the binding signal was 4670 fluorescence intensity (a.u.).

As for “GAGATGATTGTTTCCAAATGAATGATGATTTAAGTGTATTCGGAGTCACCTAGTGCAG”, the binding signal is 52000 fluorescence intensity (a.u.).

Take “AAACTGATTGTATGCAGGTGGTTTCAACGATGATGGATGGCGGAGTCACCTAGTGCAG”: the binding signal was 31600 fluorescence intensity (a.u.).

Take “TCCTAAATGACGTGACAGGGCGTGCATACGCAGGAGTTGACGGAGTCACCTAGTGCAG”: the binding signal is 5380 fluorescence intensity (a.u.).

As for “ACGGATGTTGTGATTAATTGAAAAGTAGATGTAGGTGGAACGGAGTCACCTAGTGCAG”, the binding signal was 27400 fluorescence intensity (a.u.).

For the sequence “AAGGGGCGGACTGATTTGTAATGAAACAACTATTCCTTCCCGGAGTCACCTAGTGCAG”, the binding signal is 6800 fluorescence intensity (a.u.).

As to “GCTTAACTGAATCAACATGTATTTTAAAGTGTCAGCGTTACGGAGTCACCTAGTGCAG”, the binding signal was 16600 fluorescence intensity (a.u.).

Take “TCTAATAATCTAGGAAATAAACAACTAACCGTTTATTATACGGAGTCACCTAGTGCAG”: the binding signal was 3470 fluorescence intensity (a.u.).

As to “AAACTTTAATTTATCAACCATAAAAGAAACAATTAGAAGGCGGAGTCACCTAGTGCAG”, the binding signal is 6940 fluorescence intensity (a.u.).
